The values below come from the RNAGym collection of RNA variant scans (doi:10.1073/pnas.2313332121).

Variants at the background level are over-represented here.

First the molecules themselves.
B1: TPR 5TU (parent)
chain: GGAUCUUCUCGAUCUAACAAAAAAGACAAAUCUGCCACAAAGCUUGAGAGCAUCUUCGGAUGCAGAGGCGGCAGCCUUCGGUGGCGCGAUAGCGCCAACGUUCUCAACUAUGACACGCAAAACGCGUGCUCCGUUGAAUGGAGUUUAUCAUG

In this data set the parent is B1. The data set is described as follows: polymerase ribozyme fitness, log enrichment relative to wild type (log ratio); higher = more active; in vitro selection for triplet polymerase activity. In outline:
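Each subunit of a heterodimeric triplet polymerase ribozyme was represented by a PCR-built, transcribed mutant library that underwent triplicate single-round in vitro selection with frozen incubation at −7 °C. Extended constructs were recovered by gel excision, streptavidin-bead capture and RT-PCR, and Illumina sequencing of input and output libraries kept genotypes with ≥10 input reads and ≥1 read per output. Fitness is the logarithm of genotype enrichment relative to wild-type enrichment, from inverse-variance-weighted replicate averages, with a logarithm base of 2.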
U56G C69A C87A A120C A142C U144A: the “polymerase ribozyme fitness (log ratio)” value is ≤ -4.2.

C54A A73G A91C: the “polymerase ribozyme fitness (log ratio)” value is ≤ -4.2.

For the variant U55A G71U U90G, the “polymerase ribozyme fitness (log ratio)” value was ≤ -4.2.

For U53A G81C G84A A106G G112U, the “polymerase ribozyme fitness (log ratio)” value is ≤ -4.2.

C54A G83C U104G: the “polymerase ribozyme fitness (log ratio)” value is ≤ -4.2.

U56G C69G C87G A106C U135G: the “polymerase ribozyme fitness (log ratio)” value is ≤ -4.2.

Consider U53A G88C U134G A150G, for which the “polymerase ribozyme fitness (log ratio)” value was ≤ -4.2.

In the case of C57U A91U A110G, the “polymerase ribozyme fitness (log ratio)” value was ≤ -4.2.

For the variant U56A A66U G68A U82A C96U, the “polymerase ribozyme fitness (log ratio)” value is ≤ -4.2.

On to U53A U56G C93U U102G, for which the “polymerase ribozyme fitness (log ratio)” value was ≤ -4.2.

U53A G65A U77A G88U G92C: the “polymerase ribozyme fitness (log ratio)” value was ≤ -4.2.

As to U53G C54G C79A U151G, the “polymerase ribozyme fitness (log ratio)” value was ≤ -4.2.

On to C54U C85U G92C C93G, for which the “polymerase ribozyme fitness (log ratio)” value is ≤ -4.2.

With U56A U77G G84C, the “polymerase ribozyme fitness (log ratio)” value is ≤ -4.2.

On to U53A U139A G141A, for which the “polymerase ribozyme fitness (log ratio)” value was ≤ -4.2.

As for C54A C85G C108U, the “polymerase ribozyme fitness (log ratio)” value is ≤ -4.2.

With U56A U82G C87G C103U, the “polymerase ribozyme fitness (log ratio)” value is ≤ -4.2.

In the case of U53A C123U C125G G128A, the “polymerase ribozyme fitness (log ratio)” value is ≤ -4.2.

As to C57U A110C G136C, the “polymerase ribozyme fitness (log ratio)” value was ≤ -4.2.

With U55A C76G C103U C105U G143C, the “polymerase ribozyme fitness (log ratio)” value was ≤ -4.2.

With U53A G58A C96G C103G A115U, the “polymerase ribozyme fitness (log ratio)” value is ≤ -4.2.

For the variant U56A G83U C87U C95A A121G G143U, the “polymerase ribozyme fitness (log ratio)” value is ≤ -4.2.

Regarding C57G U61A G83U A98U C99G A107G, the “polymerase ribozyme fitness (log ratio)” value was ≤ -4.2.

Regarding U55A C87G C93A G117A, the “polymerase ribozyme fitness (log ratio)” value is ≤ -4.2.

For the variant C57U G84U C85U C96A C125U U135C, the “polymerase ribozyme fitness (log ratio)” value is ≤ -4.2.

G58C G65A G81C G86C C105U A113G C125A U134G G140A G141U: the “polymerase ribozyme fitness (log ratio)” value was ≤ -4.2.

C54G C63G C72A G74C C87A C116A: the “polymerase ribozyme fitness (log ratio)” value was ≤ -4.2.

On to U55G G58U U77C U82A C87U G100A U139C, for which the “polymerase ribozyme fitness (log ratio)” value is ≤ -4.2.

As for C54U G70U U78C G94C A115G A122C, the “polymerase ribozyme fitness (log ratio)” value was ≤ -4.2.

Turning to G58C U61A A66C G88C C99G C132G, the “polymerase ribozyme fitness (log ratio)” value was ≤ -4.2.

Consider C54A A60C A73C G86A A89C A119G G126U, for which the “polymerase ribozyme fitness (log ratio)” value was ≤ -4.2.

Turning to U53G U55A C108G G124U C129A U145G U148A, the “polymerase ribozyme fitness (log ratio)” value was ≤ -4.2.

Turning to U55G G133U A142C, the “polymerase ribozyme fitness (log ratio)” value was ≤ -4.2.

Consider C54G G67U G94C C123U U127C, for which the “polymerase ribozyme fitness (log ratio)” value is ≤ -4.2.

Take U56A A73U C87U A89U C116U C132U: the “polymerase ribozyme fitness (log ratio)” value was ≤ -4.2.

With U56A C72A, the “polymerase ribozyme fitness (log ratio)” value was ≤ -4.2.

Take C54G G65U G117C U148G: the “polymerase ribozyme fitness (log ratio)” value was ≤ -4.2.

As to U56A G83A G128A, the “polymerase ribozyme fitness (log ratio)” value was ≤ -4.2.

Turning to U53A G65U C85G G92U C105G C123G A150C U151A, the “polymerase ribozyme fitness (log ratio)” value was ≤ -4.2.

Take C54A U55A G86U C131A: the “polymerase ribozyme fitness (log ratio)” value was ≤ -4.2.

G58C A60C U146G: the “polymerase ribozyme fitness (log ratio)” value is ≤ -4.2.

Regarding U56A G62C C63A G88C C149A, the “polymerase ribozyme fitness (log ratio)” value was ≤ -4.2.

Regarding U53A G59C U61G C76U G81A U104G, the “polymerase ribozyme fitness (log ratio)” value is ≤ -4.2.

Take U56G C87G: the “polymerase ribozyme fitness (log ratio)” value was ≤ -4.2.

Regarding C54G G68A C75G C76G U90G C95G A119U, the “polymerase ribozyme fitness (log ratio)” value is ≤ -4.2.

For U53A G83A A98U U101G C131A U145A, the “polymerase ribozyme fitness (log ratio)” value is ≤ -4.2.

On to U55A U61A G71A A97U A122C G128A A142U, for which the “polymerase ribozyme fitness (log ratio)” value is ≤ -4.2.

In the case of G59A A138U, the “polymerase ribozyme fitness (log ratio)” value is ≤ -4.2.

Consider C54U G86U U146A U148C, for which the “polymerase ribozyme fitness (log ratio)” value is ≤ -4.2.

Consider U53G C76U G94C G126U C129A U130G G136U, for which the “polymerase ribozyme fitness (log ratio)” value is ≤ -4.2.

For C57A C79G C87A, the “polymerase ribozyme fitness (log ratio)” value is ≤ -4.2.

As to C54A U56A G92A A113U C125A U144C, the “polymerase ribozyme fitness (log ratio)” value was ≤ -4.2.

For the variant C54G C87U C114G A147U, the “polymerase ribozyme fitness (log ratio)” value was ≤ -4.2.

With U55G U77G C96A, the “polymerase ribozyme fitness (log ratio)” value was ≤ -4.2.

For C57G G128C G136U, the “polymerase ribozyme fitness (log ratio)” value is ≤ -4.2.

For U55A G80U G84U A91G A98U A106U C114U A142U U151G, the “polymerase ribozyme fitness (log ratio)” value was ≤ -4.2.

On to U53G A60G C75U C85A U134G, for which the “polymerase ribozyme fitness (log ratio)” value was ≤ -4.2.

U55G G65A A73U G92C G141A C149A: the “polymerase ribozyme fitness (log ratio)” value was ≤ -4.2.

For the variant U53A U56G U61A U82A C85A A115G C125U A142C, the “polymerase ribozyme fitness (log ratio)” value was ≤ -4.2.

Turning to C54A A137U, the “polymerase ribozyme fitness (log ratio)” value is ≤ -4.2.

In the case of U56G A66C U82A G88C C96A A115C C116A G126U, the “polymerase ribozyme fitness (log ratio)” value is ≤ -4.2.

As to G59A A60C G86A U104G A110U, the “polymerase ribozyme fitness (log ratio)” value was ≤ -4.2.

Turning to C57U G59C G65A G70A C79A A89U U104A, the “polymerase ribozyme fitness (log ratio)” value was ≤ -4.2.

Consider U55A G92A C93G, for which the “polymerase ribozyme fitness (log ratio)” value is ≤ -4.2.

Take U55A G65A G84A C99U C108U: the “polymerase ribozyme fitness (log ratio)” value is ≤ -4.2.

For G58C A91U, the “polymerase ribozyme fitness (log ratio)” value was ≤ -4.2.

In the case of U56A G67U G83U C85U C125U U135A, the “polymerase ribozyme fitness (log ratio)” value was ≤ -4.2.

As to C54A A119C A122G G140U, the “polymerase ribozyme fitness (log ratio)” value is ≤ -4.2.

As to C57A G58C G86C C116G G117C, the “polymerase ribozyme fitness (log ratio)” value is ≤ -4.2.

Take U55A G83U C85U U90C A91G A137G: the “polymerase ribozyme fitness (log ratio)” value is ≤ -4.2.

As to C54A A64C C79G A91G C103U U148G, the “polymerase ribozyme fitness (log ratio)” value was ≤ -4.2.

For U56G G67C G86U C103U U104G C116G A119G U146C, the “polymerase ribozyme fitness (log ratio)” value was ≤ -4.2.

For the variant C57G A91U, the “polymerase ribozyme fitness (log ratio)” value was ≤ -4.2.

For the variant C54G C87G, the “polymerase ribozyme fitness (log ratio)” value is ≤ -4.2.

In the case of C57A C118U C131A A137U A147C, the “polymerase ribozyme fitness (log ratio)” value is ≤ -4.2.

Regarding C54G C69A, the “polymerase ribozyme fitness (log ratio)” value is ≤ -4.2.

As for U56G G81C G86U G140A, the “polymerase ribozyme fitness (log ratio)” value was ≤ -4.2.

For the variant C54U C57A G58A G92C G141U U145C, the “polymerase ribozyme fitness (log ratio)” value was ≤ -4.2.

In the case of G58A U61A G84U U148G, the “polymerase ribozyme fitness (log ratio)” value is ≤ -4.2.

As for C54U U56G U61A C69A, the “polymerase ribozyme fitness (log ratio)” value was ≤ -4.2.

Take C54U U78A G86C G124C G133C G140U G141U: the “polymerase ribozyme fitness (log ratio)” value was ≤ -4.2.

Turning to C54A U78C C96U A107U C149G, the “polymerase ribozyme fitness (log ratio)” value was ≤ -4.2.

As for U56A G88A A120C, the “polymerase ribozyme fitness (log ratio)” value was ≤ -4.2.
